Reference: the supplement of paper PMC4604168 (melanoma cell lines)
This is one part of the list. Repeats are few or missing, and single values can be far off.

test system: WM1716; assay: cell count relative to DMSO control; melanoma cells; higher = more viable cells; conditions: library dose: standard library concentration; 72 h
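Further: cells treated in 1,536-well plates, then fixed and DAPI-stained, with nuclei counted from automated high-throughput microscope images.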

Structure (SMILES)	cell count [%]
O=C(/C=C/c1cccnc1)NCCCCC1CCN(C(=O)c2ccccc2)CC1 + CC(C)CCN1c2nc(Nc3cc(F)c(O)c(F)c3)ncc2N(C)C(=O)C1C [BID1870] (first compound 0.05 µM, partner dose 1 µM)	75.3
O=C(/C=C/c1cccnc1)NCCCCC1CCN(C(=O)c2ccccc2)CC1 + Cc1cc([N+](=O)[O-])ccc1NS(=O)(=O)c1cc(Cl)ccc1Cl [FH535] (first compound 0.05 µM, partner dose 5 µM)	75.9
Cc1ccc(Nc2nccc(N(C)c3ccc4c(C)n(C)nc4c3)n2)cc1S(N)(=O)=O [Pazopanib] + O=C(Nc1ccccc1)c1cc([N+](=O)[O-])ccc1Cl [GW9662] (first compound 2 µM, partner dose 10 µM)	89.6
Cc1ccc(Nc2nccc(N(C)c3ccc4c(C)n(C)nc4c3)n2)cc1S(N)(=O)=O [Pazopanib] + COc1ccc(COc2ccc(Cc3cnc(N)nc3N)cc2OC)cc1 [GW2580] (first compound 2 µM, partner dose 5 µM)	79.8

test system: WM1745; assay: as above; conditions: library dose: standard library concentration; 72 h

Structure (SMILES)	cell count [%]
CC1(C)CCC(c2ccc(Cl)cc2)=C(CN2CCN(c3ccc(C(=O)NS(=O)(=O)c4ccc(N[C@H](CCN5CCOCC5)CSc5ccccc5)c(S(=O)(=O)C(F)(F)F)c4)cc3)CC2)C1 + Nc1nc(F)nc2c1ncn2[C@@H]1O[C@H](CO)[C@@H](O)[C@@H]1O [fludarabine] (first compound 2 µM, partner dose 1 µM)	4.38
O=C(/C=C/c1cccnc1)NCCCCC1CCN(C(=O)c2ccccc2)CC1 + NCC(=O)Nc1ccc(-n2nc(C(F)(F)F)cc2-c2ccc3c(ccc4ccccc43)c2)cc1 [OSU03012] (first compound 0.05 µM, partner dose 5 µM)	97.4
CC1(C)CCC(c2ccc(Cl)cc2)=C(CN2CCN(c3ccc(C(=O)NS(=O)(=O)c4ccc(N[C@H](CCN5CCOCC5)CSc5ccccc5)c(S(=O)(=O)C(F)(F)F)c4)cc3)CC2)C1 + O=C(Nc1cccc(Cl)c1)Nc1ncc(CCNc2ncnc3ccsc23)s1 [SNS314] (first compound 2 µM, partner dose 0.004 µM)	6.04
CC1(C)CCC(c2ccc(Cl)cc2)=C(CN2CCN(c3ccc(C(=O)NS(=O)(=O)c4ccc(N[C@H](CCN5CCOCC5)CSc5ccccc5)c(S(=O)(=O)C(F)(F)F)c4)cc3)CC2)C1 + CCCCCCCCc1ccc(CCC(N)(CO)CO)cc1 [fingolimod] (first compound 2 µM, partner dose 10 µM)	2.74
